Data taken from the RNAGym collection of RNA variant scans (doi:10.1073/pnas.2313332121).
Variants at the floor of the assay are shown more often than the library holds them.

B1: TPR 5TU (parent)
chain: GGAUCUUCUCGAUCUAACAAAAAAGACAAAUCUGCCACAAAGCUUGAGAGCAUCUUCGGAUGCAGAGGCGGCAGCCUUCGGUGGCGCGAUAGCGCCAACGUUCUCAACUAUGACACGCAAAACGCGUGCUCCGUUGAAUGGAGUUUAUCAUG

Variants of: B1
Test: polymerase ribozyme fitness, log enrichment relative to wild type (log ratio); higher = more active; in vitro selection for triplet polymerase activity
Summary of the method: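 Genotype fitness is the logarithm of its enrichment divided by wild-type enrichment, using inverse-variance-weighted averages of replicates. That logarithm is base 2. Enrichment was measured by Illumina sequencing of input and output libraries from one triplicate in vitro selection round, with frozen incubation at −7 °C, on PCR-built, transcribed mutant libraries of each subunit of a heterodimeric triplet polymerase ribozyme, retaining genotypes with ≥10 input reads and ≥1 read per output.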

Variant | polymerase ribozyme fitness (log ratio)
U55A C72A C79A G86C | ≤ -4.2
U55G U61G G83A A91G G100A A120U | ≤ -4.2
U56A A142C A147G | ≤ -4.2
U55A A66U A73U C131G | ≤ -4.2
U56A A91U A113U U135C | ≤ -4.2
U55G C87A C93A C99U U134A | ≤ -4.2
U56A C57U C96U | -0.285
C54U U55A G59C C108A G140U U144C | ≤ -4.2
C54U A91U A97C G141C | ≤ -4.2
U55A A98U | -0.0691
U55A C87G | ≤ -4.2
U55A G92U G140A | ≤ -4.2
U55A G83A G86A A89C C96A A113C U127C | ≤ -4.2
C54U U56A A60U G70U A115G A150C | ≤ -4.2
C54U U55A C72G U78C C87G C114A C116G | ≤ -4.2
U55A C76U C85G A110C C118A | ≤ -4.2
C54U G70A C72G C85G G92U C95A C116A U127G | ≤ -4.2
U56A C75A G141A | ≤ -4.2
U55A G68A G84U | ≤ -4.2
C54G G68A C76A C95U | ≤ -4.2
C54G G68A C93A C108G A121C A147C | ≤ -4.2

Variant | polymerase ribozyme fitness (log ratio)
U55A G62C C63U G83U A89C A97U | ≤ -4.2
U55A U78G G133U G141A U144C | ≤ -4.2
U55A C85A C103U U135A | ≤ -4.2
U55A G58C A97G | 0.512
U55A C99A U102G G117U U134A | ≤ -4.2
U55G C57A C76G C87G G94C C108G C114A U146A | ≤ -4.2
U55A G100C U104G G143C U148A | ≤ -4.2
C54U G65U C75A G81A G83C U102G G140C | ≤ -4.2
C54G U55A G83A A121C G136U G141C U148G | ≤ -4.2
C54U C75A G86U A137U | ≤ -4.2
U55G C57U U78G C85G U148C | ≤ -4.2
C54U G71U U135A A138C | ≤ -4.2
C54U C69A G140C | ≤ -4.2
C54U A91U A107G C131U | ≤ -4.2
U55A A73U C93G A106G | ≤ -4.2
U55A C69U U78A G80U A91C C96G C123G A150U | ≤ -4.2
C54G U61A U90A G94U | ≤ -4.2
U55A C85U G88U | ≤ -4.2
U55A U78A G92A A97G | ≤ -4.2
U56A C69A | -1.46
C54G G84C C85A U109G C114A C123G A138C U145A | ≤ -4.2

Variant | polymerase ribozyme fitness (log ratio)
U55A G62U C63G C87U A98U A120U C149G | ≤ -4.2
C54G C95U U139G U148G | ≤ -4.2
U55A C76A A113G A142U A150U | ≤ -4.2
U55A G68A C95U U139C G143U | ≤ -4.2
U55A G74A U78A G80U A119U A150G | ≤ -4.2
U55A U61G C87G U102G C125A G141C | ≤ -4.2
C54G G58C A60U G80C A91G C93U C105U C116G A137G | ≤ -4.2
C54U C95U A107G U130C C131A | ≤ -4.2
U55A C76A G88A U146G | ≤ -4.2
U56A A64G C79G | ≤ -4.2
C54G C87G U109C G117U | ≤ -4.2
C54U U61A A66C C72A C87A G88U C103A | ≤ -4.2
C54U C95A | -1.44
U55A G58A A60G A89C A91U | ≤ -4.2
U56A C75A U102A U104G | ≤ -4.2
U56A A60U C75A C79G C95U C125G U148G | ≤ -4.2
U55A U56A G71A U82G U102G | ≤ -4.2
U55G G74U C79U A120G A137U | ≤ -4.2
U55A U56C C63U A91C | ≤ -4.2
U55C C79A A110C C114G | ≤ -4.2
U55G U61A C79A C131G G133U A138G | ≤ -4.2

Variant | polymerase ribozyme fitness (log ratio)
U55A C57U A60G C87A A98U A107U C116A G141U | ≤ -4.2
C54U A73G G80C G83C C125G G143U | ≤ -4.2
U56A A73C G84U U127C | ≤ -4.2
C54U G83C C85G A138G | ≤ -4.2
C54U G65A C96A A107U | ≤ -4.2
U55C C75G A89G | ≤ -4.2
U55G C57G C87G | ≤ -4.2
U55A C93U G133U G141U | ≤ -4.2
C54U C87U C105A | -2.09
C54U U56A G58A C85U C95A | -1.2
C54U C69A C85U C129A | ≤ -4.2
U55G C95U U148G | ≤ -4.2
C54U C95A C103A U111A C114U U148A | ≤ -4.2
C54G G58C C75G U90C C99G | ≤ -4.2
U55G C93U G140U U148C | ≤ -4.2
U55G C95U C105U C116A A147C | ≤ -4.2
C54U G80A G86U U90G C105U | ≤ -4.2
U55A C57U G81A G84A | -0.555
U56A A107U A138G | ≤ -4.2
C54U U90G A91C | ≤ -4.2
